According to PMC4336329 (PLoS ONE, 2015):
In all, about 310,000 compounds went through this assay and about 2,200 (0.71%) showed an effect of 50% or more. Effects have a minus sign here. The list shows a part of the results.

target: human ether-à-go-go-related gene (hERG) potassium channel (human, UniProt Q12809); assay: primary screen, population patch clamp on CHO cells stably expressing hERG
Sequence (Q12809 whole entry, looked up): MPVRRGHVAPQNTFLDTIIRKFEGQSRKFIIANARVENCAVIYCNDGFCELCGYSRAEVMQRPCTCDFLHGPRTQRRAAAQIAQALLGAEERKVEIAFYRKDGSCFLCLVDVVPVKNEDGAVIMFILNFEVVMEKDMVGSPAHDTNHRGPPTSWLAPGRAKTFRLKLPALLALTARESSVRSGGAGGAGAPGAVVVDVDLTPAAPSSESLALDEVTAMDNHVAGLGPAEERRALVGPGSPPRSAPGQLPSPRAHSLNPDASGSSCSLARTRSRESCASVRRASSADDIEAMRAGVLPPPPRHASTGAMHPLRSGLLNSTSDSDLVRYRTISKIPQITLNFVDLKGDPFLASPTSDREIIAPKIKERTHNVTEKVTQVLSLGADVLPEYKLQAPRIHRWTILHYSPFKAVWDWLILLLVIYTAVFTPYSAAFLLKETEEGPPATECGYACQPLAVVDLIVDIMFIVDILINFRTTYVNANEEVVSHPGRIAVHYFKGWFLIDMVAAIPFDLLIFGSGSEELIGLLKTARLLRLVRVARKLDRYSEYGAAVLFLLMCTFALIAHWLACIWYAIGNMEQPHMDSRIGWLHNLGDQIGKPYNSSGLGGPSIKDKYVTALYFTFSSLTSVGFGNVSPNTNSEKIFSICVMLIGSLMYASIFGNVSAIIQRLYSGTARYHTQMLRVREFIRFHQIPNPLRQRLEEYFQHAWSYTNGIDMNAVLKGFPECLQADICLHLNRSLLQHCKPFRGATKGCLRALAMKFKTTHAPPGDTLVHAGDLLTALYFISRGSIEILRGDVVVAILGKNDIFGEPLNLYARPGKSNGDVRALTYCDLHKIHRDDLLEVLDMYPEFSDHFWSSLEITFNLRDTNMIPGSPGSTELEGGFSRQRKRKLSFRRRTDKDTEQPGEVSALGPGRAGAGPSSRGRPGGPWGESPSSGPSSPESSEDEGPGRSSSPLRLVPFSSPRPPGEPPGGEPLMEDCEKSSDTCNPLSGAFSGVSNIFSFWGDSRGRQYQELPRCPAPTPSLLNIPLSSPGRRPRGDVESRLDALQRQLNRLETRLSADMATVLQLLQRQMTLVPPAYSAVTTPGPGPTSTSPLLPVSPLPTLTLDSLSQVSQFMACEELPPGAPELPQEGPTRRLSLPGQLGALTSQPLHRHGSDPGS

Row | Structure (SMILES) | hERG current change (%, negative = inhibition) at 1uM
1 | Cc1cc(OCC(=O)O/N=C(\N)c2ccccc2)ccc1Br | 17.2%
2 | COc1ccccc1C1=NNC(=NCc2ccccc2)SC1 | 9.34%
3 | CS(=O)(=O)N1CCN(c2cccc(Cl)n2)CC1 | 16.6%
4 | CN(Cc1nc(-c2ccc(C(F)(F)F)cc2)no1)C1CCOCC1 | 8.84%
5 | COCCn1c(SCc2ccc(C(=O)OC)o2)nc2cc(Cl)ccc2c1=O | 4.1%
6 | O=C(CSc1nc(C2CC2)nc2ccccc12)NCc1ccc2c(c1)OCO2 | 14.6%
7 | Cc1ccc(NC(=O)[C@@H](NC(=O)c2cccc(S(=O)(=O)N3CCOCC3)c2)C(C)C)cc1C | 7.51%
8 | CN(C)/C=C(\C=O)c1ccc(Cl)cc1Cl | 6.78%
9 | CCN1CC(CN(C)Cc2nc(COc3ccccc3)no2)CC1=O (centres unmarked) | 13.9%
10 | COc1ccc(NC(=S)N(CCCN2CCCCC2)Cc2cccs2)cc1 | -50.1%
11 | CCN(C(=O)COC(=O)C1CCN(S(=O)(=O)c2c(Cl)cccc2Cl)CC1)C1CCCCC1 | 3.91%
12 | Cc1nnc(SCC(=O)NC(=O)NCc2ccco2)n1Cc1ccccc1 | 10.2%
13 | O=C(NCCc1ccccc1)c1ccc(S(=O)(=O)N2CCCC2)cc1 | 1.97%
14 | COCCN(C(=O)Nc1ccc(OC)cc1OC)C1CCN(C(C)C)CC1 | 6.89%
15 | CCOC(=O)C1CCCN(C(=O)c2ccc(OCC)cc2)C1 (centres unmarked) | 9.68%
16 | COc1ccc(CC(=O)N/N=C/c2ccc(Cl)s2)cc1OC | 7.65%
17 | Cc1cc(NC(=O)CSc2nc(Cc3ccc(O)cc3)c(C)[nH]2)no1 | -2.35%
18 | Cc1ccccc1N1CCN(CC(=O)Nc2nc(C)c(C(=O)N(C)C)s2)CC1 | 9.73%
19 | COc1ccc(OC)c(S(=O)(=O)Nc2ccc(C(C)=O)cc2)c1 | 4.91%
20 | O=C(NCCCc1ccccc1)N1CCOCC1 | 7%
21 | Cl.O=C(O)c1ccccc1N/N=C\c1ccnc2ccccc12 | 14.7%
22 | C=CCC1CCC/C(=N\NS(=O)(=O)c2ccc(C)cc2)C1 (centres unmarked) | 11%
23 | COc1ccc(Br)cc1CNCC1CCCO1 (centres unmarked) | 9.62%
24 | COc1cccc(C(=O)Nc2nc3ccc(S(C)(=O)=O)cc3s2)c1 | 12.7%
25 | O=C(NCCc1nccs1)C1CCC(=O)N(CCc2ccc(Cl)cc2)C1 (centres unmarked) | 5.69%
26 | Cc1ccc(-n2nc(C)c(NC(=O)COC(=O)c3ccccc3NCCO)c2C)cc1 | 7.81%
